Laboratory results published in the supplement of paper PMC7125110.
± gives the standard error. Variants at the background level are over-represented here.

B1: glmS ribozyme (parent)
chain: AUAAAAGCGCCAGAACUACAGAAAUGUAGUUGACGAGGAGGAGGUUUAUCGAAUUUUCGGCGGAUGCCUCCAAA

Experiments:
Settings in all cases: with glucosamine-6-phosphate
glucosamine-6-phosphate [1] = variants of: B1; test: self-cleavage kobs at 640 uM GlcN6P; higher = faster cleavage; RNA array
Procedure, shortened: (§1)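 Ribozyme variants carrying barcodes were transcribed in situ on sequenced MiSeq chips by E. coli RNA polymerase and tracked at 37 °C with a hybridised Cy3 probe. They were exposed to 40 μM to 10 mM glucosamine-6-phosphate in HEPES/KCl/Mg(OAc)2 buffer. kobs came from exponential decay fits of normalised per-tile medians, and kcat and KM from weighted Michaelis–Menten fits.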

glucosamine-6-phosphate [2] = variants of: B1; test: self-cleavage kobs at 160 uM GlcN6P; higher = faster cleavage; RNA array
Procedure, shortened: as §1

glucosamine-6-phosphate [3] = variants of: B1; test: self-cleavage kobs at 2500 uM GlcN6P; higher = faster cleavage; RNA array
Procedure, shortened: as §1

glucosamine-6-phosphate [4] = variants of: B1; test: self-cleavage kobs at 10000 uM GlcN6P; higher = faster cleavage; RNA array
Procedure, shortened: as §1

| Variant | self-cleavage kobs at 640 uM GlcN6P (glucosamine-6-phosphate [1]) [s⁻¹] | self-cleavage kobs at 160 uM GlcN6P (glucosamine-6-phosphate [2]) [s⁻¹] | self-cleavage kobs at 2500 uM GlcN6P (glucosamine-6-phosphate [3]) [s⁻¹] | self-cleavage kobs at 10000 uM GlcN6P (glucosamine-6-phosphate [4]) [s⁻¹] |
| --- | --- | --- | --- | --- |
| AUAAAAGCGACACAGCUACAGAAAUGUAGUUGACGAGGAGGAGGUUUAUCGAAUUUUCGCCGGAUGCCUCCAAA | < 1e-05 | < 1e-05 | < 1e-05 |  |
| AUAAAAGCGACAGAAUUACAGAAAUGUAGUUGACGAGGAGGAGGUUUAUCCAAUUUUCGUCGGAUGCCUCCAAA | < 1e-05 |  |  |  |
| AUAAAAGCUCGAGAACUACAGAAAUGUAGUUGACGAGGAGGAGGUUUAUCGAAUUUUCGGCGGAUGUCUCCAAA | < 1e-05 |  |  |  |
| AUAAAAGCGACAGAACUACAGAAAUGUAGUUGAAGAGGAGGCGGUUUAUCGAAUUUUCGGCGGAUGCCUCCAAA | < 1e-05 |  | < 1e-05 |  |
| AUAAAAGCUCCAGAACUACAGAAAUGUAGUUGACGAGGAGGAGGUUAAUCGAAUUUUCGGCGGAUGCCUCCAAA | < 1e-05 |  | < 1e-05 |  |
| AUAAAAGCUAAAGAACUACAGAAAUGUAGUUGACGAGGAGGAGGUUUAUCGAAUUUUCGGCGGAUGCAUCCAAA | < 1e-05 |  |  |  |
| AUAAAAGCGACAGAACUACAGAAAUGUAGUUGACGAGGAGGAGGUUUAUCGAAUUUUCGGGGGAUGGCUCCAAA | 0.00401 ± 0.0011 |  |  |  |
| AUAAAAGCGACAGAACUACAGAAAUGUAGUUGACGAGGAGGGGGUUCAUGGAAUUUUCGGCGGAUGCCUUCAAA | < 1e-05 |  |  |  |
| AUAAAAGCUCCAGAACUACAGAAAUGUAGUUGACGAGGAUGAGGUUUAUCGAAUUUUCGGCGGAUGCCUCCAAA | < 1e-05 | < 1e-05 | < 1e-05 | < 1e-05 |
| AUAAAAGCGACGGAACUACAGAAAUGUAGUUGACGAGGAGGUGGUUUAUCGAAUUUUCGGCGGAUGCCUCCAAA | < 1e-05 |  |  |  |
| AUAAAAGCUCCAGAACUACAGAAAUGUAGUUGAGGAGCAGGAAGUCUAUCGAAUGUUCGGCGGAUGCCUCCAAA | < 1e-05 |  |  |  |
| AUAAAAGCUCCAGAUCUACAGAAAUGUAGUUGACGAGGAGGAGGUUUAUCGAAUUUUCCGCGGAUGCCUCCAAA | < 1e-05 |  |  |  |
| AUAAAAGCUUCAGAACUACAGAAAUGUAGUUGAGGAGGAGGAGGUUUAUCGAUUUUUCGGCGCAAGCCUCCAAA | < 1e-05 |  |  |  |
| AUAAAAGCUACAGAACUACAGAAAUGUACUUGACGAAGAGGACGUUUUUGGAAUUUUCGGCGGAUGCCUACAAA | < 1e-05 |  |  |  |
| AUAAAAGCUCCAGAACUACAGAAAUGUAGUUGACGAGAAGGAGGUUUAUCGAAUUUUCGGCGGAUGCCUCCAAA | < 1e-05 | < 1e-05 |  |  |
| AUAAAAGCUCCAGACCUACAGAAAUGUAGUUGAUGAGGAGGAGGUUUAUCGAUUUUUCGGCGGAUGUCUCCAAA | < 1e-05 |  |  |  |
| AUAAAAGCUCCAGAACUACAGAAAUGUAGUUGACGAGGAGGAGGUUUAUCGAAUUUUGCGCGGAUGCCUCCAAA | < 1e-05 |  | < 1e-05 |  |
| AUAAAAGCUCCAGAACUACAGAAAUGUAGUUGACGAGGUGGAGAUUUAUCGAAUUUUCGGCGGAUGCCUCAAAA | < 1e-05 |  |  |  |
| AUAAAAGCGACCGAACUACAGAAAUGUAGUUGACGAGGAGGAGGUUUAUCGAAUUUUCUGCGGAUGCCUCCAAA | < 1e-05 |  | < 1e-05 |  |
| AUAAAAGCUCCAGAACUACAGAAAUGUAGUUGACGAGGAGGAGGUUUAUCGAACUUUCGGCGGAUGCCUCCAAA | < 1e-05 |  |  |  |
| AUAAAAGCUCCAGAACUACAGAAAUGUAGUUGACGAGGAGGAGGUUUAUCGAAUUUUCGGCAGAUGCUUCCAAA | < 1e-05 |  | < 1e-05 |  |
| AUAAAAGCGACAGAACUACAGAAAUGUAGUUGACGAGGAGGUGGUUUAUCGGAUUUUCGGCGGAUGCCUCCAAA | < 1e-05 |  |  |  |

| Variant | self-cleavage kobs at 640 uM GlcN6P (glucosamine-6-phosphate [1]) [s⁻¹] | self-cleavage kobs at 160 uM GlcN6P (glucosamine-6-phosphate [2]) [s⁻¹] | self-cleavage kobs at 2500 uM GlcN6P (glucosamine-6-phosphate [3]) [s⁻¹] | self-cleavage kobs at 10000 uM GlcN6P (glucosamine-6-phosphate [4]) [s⁻¹] |
| --- | --- | --- | --- | --- |
| AUAAAAGCGACAGAAUUACAGAAAUGUAGUUGACGAGGAGGAGGUUUAUCGAAUUUUCGGUGGAUGCCUCAAAA | < 1e-05 |  |  |  |
| AUAAAAGCGACAGAAAUACAGAAAUGUAGUUGACGAGGAGGAGGUUUAUCUAAUUUUCGGCGGCUGCCUCCAAA | < 1e-05 |  |  |  |
| AUAAAAGCUCCAGCACUACAGAAAUGUAGUUGACGAGGAGGAGGGUUAUCGAAUUGUCGGCGGAUGCCUCCAAA | < 1e-05 | < 1e-05 |  |  |
| AUAAAAGCUCCAGCACUACAGAAAUGUAGUUGACGAGGAGGAGGUUUAUCGAUUUUUCGGCAGAUGGCUCCAAA | < 1e-05 |  | < 1e-05 |  |
| AUAAAAGCUCCAAAACUACAGAAAUGUAGUUGACGAGGAAGAGGUUUAUCCAAUUUUCGGCUGAUGCCUCCAAA | < 1e-05 |  | < 1e-05 |  |
| AUAAAAGCGAGAGAACUACAGAAAUGUAGUUGACGAGGUGGAGGUUUAUCGAAUUUUCGGCGGAUGCCUCCAAA | < 1e-05 | < 1e-05 | < 1e-05 |  |
| AUAAAAGCUCCAGAACUACAGAAAUGUAGUUGACGAGGGGGAGGUUUAUCGAAUUUUCGGCGGAUGCUUCCAAA | < 1e-05 | < 1e-05 |  |  |
| AUAAAAGCGACAGAACUACAGAAAUGUAGUUGACGAGGAGGUGGUUUCUCGAAUUUUCCGCGGAUGCCUCCAAA | < 1e-05 |  | < 1e-05 |  |
| AUAAAAGCUCCACAACUACAGAAAUGUAGUUGACGAGGAGGAGGUUUAUCGAAUUUUCAGCGGAUGCCUCCAAA | < 1e-05 |  |  |  |
| AUAAAAGCUCCACAACUACAGAAAUGUAGUUGACGAGGAGGAAGUUUAUCGAAUUUUCGGCGGAUGCCUCCAAA | < 1e-05 |  |  |  |
| AUAAAAGCGAGAGAACUACAGAAAUGUAGGUGACGAGGAGUAGGUUUAUCGAAUUUUCGGCGGAUGCCUCCAAA | < 1e-05 |  |  |  |
| AUAAAAGCUCCAGAACUACAGAAAUGUACUUGACGAGGAGUAGGCUUAUCGAAUUUUCGGCGGUUGCCUCCAAA | < 1e-05 | < 1e-05 |  |  |
| AUAAAAGCUCCAUAACUACAGAAAUGUAGUUGACGAGGAGGAGGUUUAUCGAAUUUUCGGCGGAUGCCUCCAAA | < 1e-05 | < 1e-05 | < 1e-05 |  |
| AUAAAAGCUCCAGAAUUACAGAAAUGUAGUUGACGAGGAGGAGGUUUAUCGAAUUUGCGGCGGAUGCUUCCAAA | < 1e-05 | < 1e-05 |  |  |
| AUAAAAGCUCCAGAACUACAGAAAUGUAGUUGACGAGGAGGAGCUUUAUCGAAUUUUCGGCGGAGGCCUCCAAA | < 1e-05 | < 1e-05 |  |  |
| AUAAAAGCUCCAGAACUACAGAAAUGUAGUUGACGAGGAGGAGGUUUAUCGAAUUUUCGGGAGAUGCCUCCAAA | < 1e-05 | < 1e-05 | < 1e-05 |  |
| AUAAAAGCGACAGAACUACAGAAAUGUAGUUGUCGAUGCGGAGGUUUAUCGAAUUUUCGGCGGAUGCCUCCAAA | < 1e-05 |  |  |  |
| AUAAAAGCUCCAGAACUACAGAAAUGUAGUUGACGAGGACGAGGUUUAUCAAAUUUUCGGCGGAUGCCUCCAAA | < 1e-05 | < 1e-05 | < 1e-05 |  |
| AUAAAAGCGACAGAACUACAGAAAUGUAGUUGACGCGUACGAGGUUUAUCGAAUUUUCGGCGGAUGCCUCCAAA | < 1e-05 | < 1e-05 | < 1e-05 |  |
| AUAAAAGCUCCAGAACUACAGAAAUGUAGUCGACUAGGAGGGGGUUUAUCGAAUUUUCGGAGGAUGACUUCAAA | < 1e-05 |  |  |  |
| AUAAAAGCUCCAGAAGUACAGAAAUGUAGUUGACGAGGAGGAGGUUUAUCGAAUUUUCGACGGAUGCCUCCAAA | < 1e-05 |  |  |  |
| AUAAAAGCUCCAGAUCUACAGAAAUGUAGUUGACGAGGUGGAGGUUUAUCGAAUUUUCGGCGGAUGCCCCCAAA | < 1e-05 | < 1e-05 |  |  |
